# Assay results as given in the supplement of paper PMC8728848.
# The other results are listed elsewhere or left out.
# B1: Dectin-1 (Mus musculus), Q6QLQ4 (protein)
# chain: GHNSGRNPEEKDNFLSRNKENHKPTESSLDEKVAPSKASQTTGGFSQPCLPNWIMHGKSCYLFSFSGNSWYGSKRHCSQLGAHLLKIDNSKEFEFIESQTSSHRINAFWIGLSRNQSEGPWFWEDGSAFFPNSFQVRNTAPQESLLHNCVWIHGSEVYNQICNTSSYSICEKEL
# Legend:
# Experiment in all cases: glycan array binding signal (z-score within array); higher = stronger binding
# Conditions in all cases: glycan notation: IUPAC condensed, linker removed
# [1] = target: Glc(a1-6)Glc(a1-6)Glc(a1-6)Glc
# How it was run: (§1)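 The binding signal is a Z-score computed within each array and averaged over linkers. Arrays of the same protein sequence at different concentrations or buffers were also averaged together. Data originate from 3228 arrays in the Consortium for Functional Glycomics database, kept only where the protein sequence was available.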
# [2] = target: Glc(a1-6)Glc(a1-6)Glc(a1-6)Glc(a1-6)Glc
# How it was run: as §1
# [3] = target: Glc(a1-6)Glc(a1-6)Glc(a1-6)Glc(a1-6)Glc(a1-6)Glc
# How it was run: as §1
# [4] = target: Glc(a1-6)Glc(a1-6)Glc(a1-6)Glc(a1-6)Glc(a1-6)Glc(a1-6)Glc
# How it was run: as §1
# [5] = target: Glc(a1-6)Glc(a1-6)Glc(a1-6)Glc(a1-6)Glc(a1-6)Glc(a1-6)Glc(a1-6)Glc
# How it was run: as §1
# [6] = target: Glc(a1-6)Glc(a1-6)Glc(a1-6)Glc(a1-6)Glc(a1-6)Glc(a1-6)Glc(a1-6)Glc(a1-6)Glc
# How it was run: as §1
# [7] = target: Glc(a1-6)Glc(a1-6)Glc(a1-6)Glc(a1-6)Glc(a1-6)Glc(a1-6)Glc(a1-6)Glc(a1-6)Glc(a1-6)Glc
# How it was run: as §1
# [8] = target: Glc(a1-6)Glc(a1-6)Glc(a1-6)Glc(a1-6)Glc(a1-6)Glc(a1-6)Glc(a1-6)Glc(a1-6)Glc(a1-6)Glc(a1-6)Glc
# How it was run: as §1
# [9] = target: Glc(a1-6)Glc(a1-6)Glc(a1-6)Glc(a1-6)Glc(a1-6)Glc(a1-6)Glc(a1-6)Glc(a1-6)Glc(a1-6)Glc(a1-6)Glc(a1-6)Glc
# How it was run: as §1
# [10] = target: Glc(a1-6)Glc(a1-6)Glc(a1-6)Glc(a1-6)Glc(a1-6)Glc(a1-6)Glc(a1-6)Glc(a1-6)Glc(a1-6)Glc(a1-6)Glc(a1-6)Glc(a1-6)Glc
# How it was run: as §1
# Glc(b1-2)Glc = target: Glc(b1-2)Glc
# How it was run: as §1
# Glc(b1-2)Glc(b1-2)Glc = target: Glc(b1-2)Glc(b1-2)Glc
# How it was run: as §1
# [11] = target: Glc(b1-2)Glc(b1-2)Glc(b1-2)Glc
# How it was run: as §1
# [12] = target: Glc(b1-2)Glc(b1-2)Glc(b1-2)Glc(b1-2)Glc
# How it was run: as §1
# [13] = target: Glc(b1-2)Glc(b1-2)Glc(b1-2)Glc(b1-2)Glc(b1-2)Glc
# How it was run: as §1
# [14] = target: Glc(b1-2)Glc(b1-2)Glc(b1-2)Glc(b1-2)Glc(b1-2)Glc(b1-2)Glc
# How it was run: as §1
# [15] = target: Glc(b1-2)Glc(b1-2)Glc(b1-2)Glc(b1-2)Glc(b1-2)Glc(b1-2)Glc(b1-2)Glc
# How it was run: as §1
# [16] = target: Glc(b1-2)Glc(b1-2)Glc(b1-2)Glc(b1-2)Glc(b1-2)Glc(b1-2)Glc(b1-2)Glc(b1-2)Glc
# How it was run: as §1
# [17] = target: Glc(b1-2)Glc(b1-2)Glc(b1-2)Glc(b1-2)Glc(b1-2)Glc(b1-2)Glc(b1-2)Glc(b1-2)Glc(b1-2)Glc
# How it was run: as §1
# [18] = target: Glc(b1-2)Glc(b1-2)Glc(b1-2)Glc(b1-2)Glc(b1-2)Glc(b1-2)Glc(b1-2)Glc(b1-2)Glc(b1-2)Glc(b1-2)Glc
# How it was run: as §1
# [19] = target: Glc(b1-2)Glc(b1-2)Glc(b1-2)Glc(b1-2)Glc(b1-2)Glc(b1-2)Glc(b1-2)Glc(b1-2)Glc(b1-2)Glc(b1-2)Glc(b1-2)Glc
# How it was run: as §1
# [20] = target: Glc(b1-2)Glc(b1-2)Glc(b1-2)Glc(b1-2)Glc(b1-2)Glc(b1-2)Glc(b1-2)Glc(b1-2)Glc(b1-2)Glc(b1-2)Glc(b1-2)Glc(b1-2)Glc
# How it was run: as §1
# Glc(b1-3)Glc = target: Glc(b1-3)Glc
# How it was run: as §1
# Glc(b1-3)Glc(b1-3)Glc = target: Glc(b1-3)Glc(b1-3)Glc
# How it was run: as §1
# [21] = target: Glc(b1-3)Glc(b1-3)Glc(b1-3)Glc
# How it was run: as §1
# [22] = target: Glc(b1-3)Glc(b1-3)Glc(b1-3)Glc(b1-3)Glc
# How it was run: as §1
# [23] = target: Glc(b1-3)Glc(b1-3)Glc(b1-3)Glc(b1-3)Glc(b1-3)Glc
# How it was run: as §1
# [24] = target: Glc(b1-3)Glc(b1-3)Glc(b1-3)Glc(b1-3)Glc(b1-3)Glc(b1-3)Glc
# How it was run: as §1
# [25] = target: Glc(b1-3)Glc(b1-3)Glc(b1-3)Glc(b1-3)Glc(b1-3)Glc(b1-3)Glc(b1-3)Glc
# How it was run: as §1
# [26] = target: Glc(b1-3)Glc(b1-3)Glc(b1-3)Glc(b1-3)Glc(b1-3)Glc(b1-3)Glc(b1-3)Glc(b1-3)Glc
# How it was run: as §1
# [27] = target: Glc(b1-3)Glc(b1-3)Glc(b1-3)Glc(b1-3)Glc(b1-3)Glc(b1-3)Glc(b1-3)Glc(b1-3)Glc(b1-3)Glc
# How it was run: as §1
# [28] = target: Glc(b1-3)Glc(b1-3)Glc(b1-3)Glc(b1-3)Glc(b1-3)Glc(b1-3)Glc(b1-3)Glc(b1-3)Glc(b1-3)Glc(b1-3)Glc
# How it was run: as §1
# [29] = target: Glc(b1-3)Glc(b1-3)Glc(b1-3)Glc(b1-3)Glc(b1-3)Glc(b1-3)Glc(b1-3)Glc(b1-3)Glc(b1-3)Glc(b1-3)Glc(b1-3)Glc
# How it was run: as §1
# [30] = target: Glc(b1-3)Glc(b1-3)Glc(b1-3)Glc(b1-3)Glc(b1-3)Glc(b1-3)Glc(b1-3)Glc(b1-3)Glc(b1-3)Glc(b1-3)Glc(b1-3)Glc(b1-3)Glc
# How it was run: as §1
# [31] = target: Glc(b1-3)Glc(b1-3)Glc(b1-3)Glc(b1-3)Glc(b1-3)Glc(b1-3)Glc(b1-3)[Glc(b1-6)]Glc(b1-3)Glc
# How it was run: as §1
# [32] = target: Glc(b1-3)Glc(b1-3)Glc(b1-3)Glc(b1-3)Glc(b1-3)Glc(b1-3)[Glc(b1-6)]Glc(b1-3)Glc(b1-3)Glc
# How it was run: as §1
# [33] = target: Glc(b1-3)Glc(b1-3)Glc(b1-3)Glc(b1-3)[Glc(b1-6)]Glc(b1-3)Glc(b1-3)Glc(b1-3)Glc(b1-3)Glc
# How it was run: as §1
# [34] = target: Glc(b1-3)Glc(b1-3)Glc(b1-3)[Glc(b1-6)]Glc(b1-3)Glc(b1-3)Glc(b1-3)Glc(b1-3)[Glc(b1-6)]Glc(b1-3)Glc
# How it was run: as §1
# [35] = target: Glc(b1-3)Glc(b1-3)[Glc(b1-6)]Glc(b1-3)Glc(b1-3)Glc(b1-3)Glc(b1-3)Glc(b1-3)Glc(b1-3)Glc
# How it was run: as §1
# Glc(b1-3)Glc(b1-4)Glc = target: Glc(b1-3)Glc(b1-4)Glc
# How it was run: as §1
# [36] = target: Glc(b1-3)Glc(b1-4)Glc(b1-4)Glc
# How it was run: as §1
# [37] = target: Glc(b1-3)Glc(b1-4)Glc(b1-6)Glc(b1-4)Glc
# How it was run: as §1
# [38] = target: Glc(b1-3)[Glc(b1-6)]Glc(a1-3)Glc(b1-3)[Glc(b1-6)]Glc
# How it was run: as §1
# [39] = target: Glc(b1-3)[Glc(b1-6)]Glc(b1-3)Glc(b1-3)Glc(b1-3)Glc(b1-3)Glc(b1-3)Glc(b1-3)Glc
# How it was run: as §1
# Glc(b1-4)Glc = target: Glc(b1-4)Glc
# How it was run: as §1
binder,measurement,setting,value
B1,glycan array binding signal (z-score),[1],-0.113
same,glycan array binding signal (z-score),[2],-0.091
same,glycan array binding signal (z-score),[3],-0.09
same,glycan array binding signal (z-score),[4],-0.082
same,glycan array binding signal (z-score),[5],-0.09
same,glycan array binding signal (z-score),[6],-0.135
same,glycan array binding signal (z-score),[7],-0.135
same,glycan array binding signal (z-score),[8],-0.135
same,glycan array binding signal (z-score),[9],-0.135
same,glycan array binding signal (z-score),[10],-0.135
same,glycan array binding signal (z-score),Glc(b1-2)Glc,-0.135
same,glycan array binding signal (z-score),Glc(b1-2)Glc(b1-2)Glc,-0.135
same,glycan array binding signal (z-score),[11],-0.135
same,glycan array binding signal (z-score),[12],-0.135
same,glycan array binding signal (z-score),[13],-0.135
same,glycan array binding signal (z-score),[14],-0.135
same,glycan array binding signal (z-score),[15],-0.135
same,glycan array binding signal (z-score),[16],-0.135
same,glycan array binding signal (z-score),[17],-0.135
same,glycan array binding signal (z-score),[18],-0.135
same,glycan array binding signal (z-score),[19],-0.135
same,glycan array binding signal (z-score),[20],-0.135
same,glycan array binding signal (z-score),Glc(b1-3)Glc,-0.135
same,glycan array binding signal (z-score),Glc(b1-3)Glc(b1-3)Glc,-0.135
same,glycan array binding signal (z-score),[21],-0.135
same,glycan array binding signal (z-score),[22],-0.101
same,glycan array binding signal (z-score),[23],-0.095
same,glycan array binding signal (z-score),[24],-0.135
same,glycan array binding signal (z-score),[25],-0.113
same,glycan array binding signal (z-score),[26],-0.135
same,glycan array binding signal (z-score),[27],-0.135
same,glycan array binding signal (z-score),[28],1.33
same,glycan array binding signal (z-score),[29],5.34
same,glycan array binding signal (z-score),[30],13.4
same,glycan array binding signal (z-score),[31],-0.135
same,glycan array binding signal (z-score),[32],-0.135
same,glycan array binding signal (z-score),[33],-0.135
same,glycan array binding signal (z-score),[34],-0.135
same,glycan array binding signal (z-score),[35],-0.135
same,glycan array binding signal (z-score),Glc(b1-3)Glc(b1-4)Glc,-0.135
same,glycan array binding signal (z-score),[36],-0.135
same,glycan array binding signal (z-score),[37],-0.135
same,glycan array binding signal (z-score),[38],-0.135
same,glycan array binding signal (z-score),[39],-0.135
same,glycan array binding signal (z-score),Glc(b1-4)Glc,-0.135
